Our source for the activity change, negative = inhibition values is PubChem BioAssay AID1745853 (National Center for Advancing Translational Sciences (NCATS), 2022).

Common to all, as to assay: Primary Screen for Target Class Profiling of Small Molecule Inhibitors of Methyltransferases
In assay [1] the target is Glycine N-methyltransferase (Homo sapiens) (UniProt Q14749). Particulars: purified enzyme, MTase-Glo SAH luminescence; measured here: GNMT inhibition; at 40 µM; stronger effect = lower value. An outline of the steps: (§1)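 Each enzyme was assayed with SAM and its substrate. SAH formation detected by MTase-Glo luminescence; single-point 40 uM screen[…].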
For assay [2], the target named is Guanidinoacetate N-methyltransferase (Homo sapiens) (UniProt Q14353). Particulars: purified enzyme, MTase-Glo SAH luminescence; measured here: GAMT inhibition; at 40 µM; stronger effect = lower value. The essentials:
as §1

Assay [3] concerns the target Histamine N-methyltransferase (Homo sapiens) (UniProt P50135). Particulars: purified enzyme, MTase-Glo SAH luminescence; measured here: HNMT inhibition; at 40 µM; stronger effect = lower value. An outline of the steps: as §1
Assay [4] addresses Nicotinamide N-methyltransferase (Homo sapiens) (UniProt P40261). Particulars: purified enzyme, MTase-Glo SAH luminescence; measured here: NNMT inhibition; at 40 µM; stronger effect = lower value. The essentials:
as §1

Assay [5] addresses Phenylethanolamine N-methyltransferase (Homo sapiens) (UniProt P11086). To be noted: purified enzyme, MTase-Glo SAH luminescence; measured here: PNMT inhibition; at 40 µM; stronger effect = lower value. An outline of the steps: as §1

The list shows a part of the results. Further columns of the screen follow, without active or inactive calls.
% is scaled to controls: 0 for no effect and ±100 for the full control effect.

With `CCC(C)NC(=O)c1ccc2c(=O)n(C(C)C)c3nn(CC(=O)NCc4ccc(F)cc4)c(=O)n3c2c1` (stereo not given), the activity change, negative = inhibition in assay [1] was 2.75%; in assay [2], 0%; in assay [3] it was 3.97%; in assay [4] it was -3%; in assay [5], 0.994%.

Turning to `CCCC(C)c1c(-c2ccccc2)ncn1CCNC(C)=O` (stereo not given), the activity change, negative = inhibition in assay [1] was -2.61%; in assay [2], 1.47%; in assay [3], 2.82%; in assay [4], -11%; in assay [5], -0.548%.

Regarding `COc1ccc(-c2nnc3n(Cc4ccccc4)c(=O)c4ccccc4n23)cc1`, the activity change, negative = inhibition in assay [1] is -10%; in assay [2] it was 2.29%; in assay [3] it was -2.14%; in assay [4], -6.43%; in assay [5], -7.11%.

Turning to `COc1ccc2cc(C(=O)N3CC4CC(C3)[C@H]3CCCC(=O)N3C4)[nH]c2c1` (stereo not given in full), the activity change, negative = inhibition in assay [1] is -3.27%; in assay [2] it was -0.329%; in assay [3], -0.325%; in assay [4], -3.08%; in assay [5], 6.91%.

Regarding `O=C1CCC2(CCN1Cc1ccccc1)CCN(C(=O)c1ccccc1F)CC2`, the activity change, negative = inhibition in assay [1] is -0.093%; in assay [2] it was -1.5%; in assay [3], -1.16%; in assay [4], -3.28%; in assay [5], -0.276%.

As for `CNC(=O)c1cc(C)nc2onc(C3CCN(C(=O)C4CCCC4)CC3)c12`, the activity change, negative = inhibition was -5.68% in assay [1]; -8.35% in assay [2]; -2.13% in assay [3]; -14.2% in assay [4]; -13.5% in assay [5].

In the case of `O=C(O)C1Cc2c([nH]c3ccccc23)C(c2ccc3c(c2)OCO3)N1` (stereo not given), the activity change, negative = inhibition worked out at 11.9% in assay [1]; 2.68% in assay [2]; 14.3% in assay [3]; 4.23% in assay [4]; 9.59% in assay [5].

In the case of `CC(C)CCN1C(=O)c2ccccc2CC1(C)C(=O)NC1CCCCCCC1` (stereo not given), the activity change, negative = inhibition was 3.06% in assay [1]; 1.15% in assay [2]; 9.62% in assay [3]; -1.82% in assay [4]; 2.49% in assay [5].

As for `COc1ccc(-c2cc3n(n2)CC(C)(C(=O)NCc2ccccc2)N(Cc2ccc(C)o2)C3=O)cc1` (stereo not given), the activity change, negative = inhibition in assay [1] was 2.11%; in assay [2] it was 1.6%; in assay [3], 5.26%; in assay [4] it was -2.47%; in assay [5], 0.199%.

For `CC(C)CCn1c(=O)c2ccc(C(=O)NC3CCCC3)cc2n2c(=O)n(Cc3ccccc3Cl)nc12`, the activity change, negative = inhibition in assay [1] was 2.57%; in assay [2] it was 0.937%; in assay [3] it was 8.34%; in assay [4] it was -1.65%; in assay [5], 4.64%.

As for `COC(=O)c1ccc2c(=O)[nH]c3c(C(=O)NCc4ccc5c(c4)OCO5)sc(=S)n3c2c1`, the activity change, negative = inhibition in assay [1] is -19.2%; in assay [2], 0%; in assay [3] it was 11.1%; in assay [4], -4.97%; in assay [5], -3.25%.

For the compound `CC(C)CCNC(=O)c1ccc2c(=O)[nH]c3c(C(=O)NC4CCCC4)sc(=S)n3c2c1`, the activity change, negative = inhibition is -22.5% in assay [1]; 2.06% in assay [2]; -6.3% in assay [3]; -32.9% in assay [4]; -27.3% in assay [5].

Regarding `COc1ccc(Cl)cc1NS(=O)(=O)c1ccc2c(c1)n(C)c(=O)n2C`, the activity change, negative = inhibition in assay [1] is 10.4%; in assay [2], 0%; in assay [3], 5.76%; in assay [4] it was -4.66%; in assay [5], 2.87%.

As to `COC(=O)c1nc(NC(=O)Cn2nc3c(cc2=O)CCCC3)sc1C(C)C`, the activity change, negative = inhibition is -63.7% in assay [1]; 4.17% in assay [2]; 0.285% in assay [3]; -14% in assay [4]; 10.5% in assay [5].

Regarding `CC[C@H](C)[C@H](NC(=O)[C@H](Cc1ccc(O)cc1)NC(=O)[C@@H](N)C(C)C)C(=O)N[C@@H](Cc1cnc[nH]1)C(=O)N1CCC[C@H]1C(=O)N[C@@H](Cc1ccccc1)C(=O)O`, the activity change, negative = inhibition in assay [1] was -2%; in assay [2], -5.57%; in assay [3] it was 12.5%; in assay [4], -12.7%; in assay [5], 2.39%.

Turning to `O=C(NC1CCOC2(CCOCC2)C1)c1ccc(-c2cnco2)cc1` (stereo not given), the activity change, negative = inhibition in assay [1] is -1.95%; in assay [2] it was -3%; in assay [3], -0.994%; in assay [4], -9.27%; in assay [5] it was -4.67%.

Consider `CCCOc1ccc(CN2C(=O)c3cc4occc4n3CC2(C)C(=O)NC2CCCCCC2)cc1` (stereo not given), for which the activity change, negative = inhibition in assay [1] was -0.458%; in assay [2], 4.94%; in assay [3], 1.79%; in assay [4], -5.77%; in assay [5] it was -4.98%.

On to `O=C(Cn1nc2n(c1=O)CCCC2)NCc1ccc(F)cc1`, for which the activity change, negative = inhibition in assay [1] was -6.14%; in assay [2], -11.5%; in assay [3], -4%; in assay [4], -9.32%; in assay [5] it was -9.35%.

`CC1(C)[C@H]2CC[C@@H](CNC(=O)C3CC3)[C@@H]1C2`: the activity change, negative = inhibition in assay [1] is -5.05%; in assay [2], -6.18%; in assay [3], -1.3%; in assay [4] it was -12%; in assay [5] it was 7.71%.

With `Cc1ccn(CC(=O)NCc2cccnc2Oc2ccccc2)n1`, the activity change, negative = inhibition in assay [1] was -3.06%; in assay [2] it was -5.8%; in assay [3], -1.07%; in assay [4], -8.06%; in assay [5], -1.59%.

As to `CC1CCC(NC(=O)C2(C)Cn3c(cc4sccc43)C(=O)N2Cc2ccccn2)CC1` (stereo not given), the activity change, negative = inhibition was -7.63% in assay [1]; 1.49% in assay [2]; -4.67% in assay [3]; -11.1% in assay [4]; -9.41% in assay [5].

On to `CCN(CC)CCNC(=O)CCn1ccc2cc(S(=O)(=O)N3CCCCC3)ccc21`, for which the activity change, negative = inhibition in assay [1] was -1.27%; in assay [2] it was 2.38%; in assay [3], -15.9%; in assay [4] it was 1.15%; in assay [5] it was 1.53%.

As to `CC1=NOC2(CCN(C(=O)c3ccccc3)CC2)C1`, the activity change, negative = inhibition in assay [1] is -5.01%; in assay [2], -13.6%; in assay [3], -1.85%; in assay [4] it was -8.67%; in assay [5], -4.02%.

In the case of `CC1CCC(NC(=O)C2(C)Cc3ccccc3C(=O)N2Cc2ccccc2Cl)CC1` (stereo not given), the activity change, negative = inhibition in assay [1] is -1.28%; in assay [2], 0%; in assay [3] it was 4.74%; in assay [4], -3.92%; in assay [5], -0.098%.

`CCCn1c(=O)c2ccc(C(=O)NC(C)C)cc2n2c(=O)n(CC(=O)c3ccc(OC)cc3)nc12`: the activity change, negative = inhibition in assay [1] was -1.36%; in assay [2], 4.58%; in assay [3], 3.07%; in assay [4], -1.13%; in assay [5], -1.15%.

Consider `Cc1cc(C(=O)N2CCOC(Cc3cccc(C(F)(F)F)c3)C2)nn1C` (stereo not given), for which the activity change, negative = inhibition is -1.55% in assay [1]; 0.053% in assay [2]; 1.63% in assay [3]; -4.81% in assay [4]; -0.866% in assay [5].

Take `CCCC1O[C@@H]2C[C@H]3[C@@H]4CCC5=CC(=O)C=C[C@]5(C)[C@H]4[C@@H](O)C[C@]3(C)[C@]2(C(=O)CO)O1` (stereo not given in full): the activity change, negative = inhibition is 3.21% in assay [1]; 11.7% in assay [2]; 11.6% in assay [3]; -16.6% in assay [4]; 1.56% in assay [5].

Take `O=C(Cn1nc2n(c1=O)CCCC2)NCCc1ccc(Cl)cc1`: the activity change, negative = inhibition in assay [1] is -1.29%; in assay [2], 0.252%; in assay [3], 0.6%; in assay [4] it was 2.11%; in assay [5], -0.199%.

With `NCCC1CCCC(CCN)N1` (stereo not given), the activity change, negative = inhibition in assay [1] was 0.988%; in assay [2] it was 8.83%; in assay [3], 3.67%; in assay [4], -1.61%; in assay [5], 3%.
